Some of the results follow. Single values are uncertain, as repeats are few or missing.
These compounds were tested on IST-MEL1 (assay: cell count relative to DMSO control; melanoma cells; higher = more viable cells). Conditions: library dose: low library concentration; 72 h.
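Further: cell number obtained by counting DAPI-stained nuclei in high-throughput microscope images with image analysis software, screen run in 1,536-well plates.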

SMILES	cell count
Cc1ccc(NC(=O)c2cccc(N(C)C)c2)cc1NC(=O)c1ccc(O)cc1 + O=C(Oc1ccc([N+](=O)[O-])cc1)N1CCC(C(O)(c2ccc3c(c2)OCO3)c2ccc3c(c2)OCO3)CC1 [JZL184] (first compound 2 µM, partner dose 1 µM)	102%
Cn1sc(=O)n(Cc2ccccc2)c1=O + C[C@]12O[C@H](C[C@]1(O)CO)n1c3ccccc3c3c4c(c5c6ccccc6n2c5c31)CNC4=O [Lestaurtinib] (first compound 0.4 µM, partner dose 0.004 µM)	91.8%
Cc1cc(SCc2sc(-c3ccc(C(F)(F)F)c(F)c3)nc2C)ccc1OCC(=O)O + Oc1cc(-c2nc(-c3ccccc3)[nH]c2-c2ccncc2)ccc1Cl [L779450] (first compound 2 µM, partner dose 0.2 µM)	91.7%
O=S(=O)(c1ccccc1)N(CC(F)(F)F)c1ccc(C(O)(C(F)(F)F)C(F)(F)F)cc1 + Cc1cc(SCc2sc(-c3ccc(C(F)(F)F)c(F)c3)nc2C)ccc1OCC(=O)O [GW0742] (first compound 1.4 µM, partner dose 2 µM)	93.6%
COC(=O)c1sccc1S(=O)(=O)Nc1ccc(Nc2ccccc2)cc1OC + C/C(O)=C(\C#N)C(=O)Nc1cc(Br)ccc1Br [LFM-A13] (first compound 1 µM, partner dose 2 µM)	104%
Cc1ccc(Nc2nccc(N(C)c3ccc4c(C)n(C)nc4c3)n2)cc1S(N)(=O)=O [Pazopanib] + N.N.[Cl][Pt][Cl] [cisplatin] (first compound 0.4 µM, partner dose 1.6 µM)	98%
COc1cc(Nc2ncc(F)c(Nc3ccc4c(n3)NC(=O)C(C)(C)O4)n2)cc(OC)c1OC [Tamatinib] + O=C(Oc1ccc([N+](=O)[O-])cc1)N1CCC(C(O)(c2ccc3c(c2)OCO3)c2ccc3c(c2)OCO3)CC1 [JZL184] (first compound 0.4 µM, partner dose 1 µM)	105%

These compounds were tested on LB2518-MEL in the same assay as above. Conditions: library dose: low library concentration; 72 h.

SMILES	cell count
Cc1cc(N2CCOCC2)cc2[nH]c(-c3c(NC[C@@H](O)c4cccc(Cl)c4)cc[nH]c3=O)nc12 + O=C(Oc1ccc([N+](=O)[O-])cc1)N1CCC(C(O)(c2ccc3c(c2)OCO3)c2ccc3c(c2)OCO3)CC1 [JZL184] (first compound 0.2 µM, partner dose 1 µM)	97.3%
COc1cc2c(Oc3ccc4[nH]c(C)cc4c3F)ncnc2cc1OCCCN1CCCC1 [cediranib] + O=C(Oc1ccc([N+](=O)[O-])cc1)N1CCC(C(O)(c2ccc3c(c2)OCO3)c2ccc3c(c2)OCO3)CC1 [JZL184] (first compound 0.4 µM, partner dose 1 µM)	105%
CCN(CC)CCNC(=O)c1c(C)[nH]c(/C=C2\C(=O)Nc3ccc(F)cc32)c1C [sunitinib] + C[As](C)SC[C@H](NC(=O)CC[C@H](N)C(=O)O)C(=O)NCC(=O)O [Darinaparsin] (first compound 0.4 µM, partner dose 0.4 µM)	91.2%
COc1ccc2c(c1)CCC1C2CCC2(C)C(NCCCCCCN3C(=O)C=CC3=O)CCC12 (stereo not drawn) + C/C(O)=C(\C#N)C(=O)Nc1cc(Br)ccc1Br [LFM-A13] (first compound 0.4 µM, partner dose 2 µM)	90.5%
COc1cc2c(Oc3ccc4[nH]c(C)cc4c3F)ncnc2cc1OCCCN1CCCC1 [cediranib] + Cc1cc(SCc2sc(-c3ccc(C(F)(F)F)c(F)c3)nc2C)ccc1OCC(=O)O [GW0742] (first compound 0.4 µM, partner dose 2 µM)	102%
Cn1cncc1[C@@](N)(c1ccc(Cl)cc1)c1ccc2c(c1)c(-c1cccc(Cl)c1)cc(=O)n2C [tipifarnib] + Cc1cc(SCc2sc(-c3ccc(C(F)(F)F)c(F)c3)nc2C)ccc1OCC(=O)O [GW0742] (first compound 0.01 µM, partner dose 2 µM)	80.4%
O=C(Nc1ccccc1)c1cc([N+](=O)[O-])ccc1Cl + Cc1cc(SCc2sc(-c3ccc(C(F)(F)F)c(F)c3)nc2C)ccc1OCC(=O)O [GW0742] (first compound 2 µM, partner dose 2 µM)	90.7%
O=C(Oc1ccc([N+](=O)[O-])cc1)N1CCC(C(O)(c2ccc3c(c2)OCO3)c2ccc3c(c2)OCO3)CC1 + O=c1cc(-c2cccc3c2Sc2ccccc2S3)oc(N2CCOCC2)c1 [KU55933] (first compound 1 µM, partner dose 1 µM)	119%
C[C@]1(c2nc3c(C(N)=O)cccc3[nH]2)CCCN1 [Veliparib] + C/C(O)=C(\C#N)C(=O)Nc1cc(Br)ccc1Br [LFM-A13] (first compound 1.4 µM, partner dose 2 µM)	89.8%
O=C(Nc1ccccc1)c1cc([N+](=O)[O-])ccc1Cl + O=C(Oc1ccc([N+](=O)[O-])cc1)N1CCC(C(O)(c2ccc3c(c2)OCO3)c2ccc3c(c2)OCO3)CC1 [JZL184] (first compound 2 µM, partner dose 1 µM)	112%
CCc1ccc(CCOc2ccc(CC3SC(=O)NC3=O)cc2)nc1 (stereo not drawn) [pioglitazone] + O=C(Oc1ccc([N+](=O)[O-])cc1)N1CCC(C(O)(c2ccc3c(c2)OCO3)c2ccc3c(c2)OCO3)CC1 [JZL184] (first compound 2 µM, partner dose 1 µM)	118%
O=C(Nc1cc(C(F)(F)F)cc(C(F)(F)F)c1)c1cc(Cl)ccc1O + Cn1cc(C2=C(c3cn(C4CCN(Cc5ccccn5)CC4)c4ccccc34)C(=O)NC2=O)c2ccccc21 [Enzastaurin] (first compound 0.016 µM, partner dose 0.8 µM)	80.3%
Cc1ccc(Nc2nccc(N(C)c3ccc4c(C)n(C)nc4c3)n2)cc1S(N)(=O)=O [Pazopanib] + Cn1cc(C2=C(c3cn(C4CCN(Cc5ccccn5)CC4)c4ccccc34)C(=O)NC2=O)c2ccccc21 [Enzastaurin] (first compound 0.4 µM, partner dose 0.8 µM)	96.3%
O=C(Nc1cc(C(F)(F)F)cc(C(F)(F)F)c1)c1cc(Cl)ccc1O + N.N.[Cl][Pt][Cl] [cisplatin] (first compound 0.016 µM, partner dose 1.6 µM)	98.3%
O=C(Nc1cccc(Cl)c1)Nc1ncc(CCNc2ncnc3ccsc23)s1 + O=C(Oc1ccc([N+](=O)[O-])cc1)N1CCC(C(O)(c2ccc3c(c2)OCO3)c2ccc3c(c2)OCO3)CC1 [JZL184] (first compound 0.0008 µM, partner dose 1 µM)	97.6%
N#Cc1c(O)c2c(-c3ccc(-c4ccccc4O)cc3)csc2[nH]c1=O + Cc1cc(SCc2sc(-c3ccc(C(F)(F)F)c(F)c3)nc2C)ccc1OCC(=O)O [GW0742] (first compound 2 µM, partner dose 2 µM)	113%
O=C(Nc1cccc(Cl)c1)Nc1ncc(CCNc2ncnc3ccsc23)s1 + Cc1cc(SCc2sc(-c3ccc(C(F)(F)F)c(F)c3)nc2C)ccc1OCC(=O)O [GW0742] (first compound 0.0008 µM, partner dose 2 µM)	97.7%
O=C(Oc1ccc([N+](=O)[O-])cc1)N1CCC(C(O)(c2ccc3c(c2)OCO3)c2ccc3c(c2)OCO3)CC1 + Cn1cc(/C=C2\C(=O)Nc3cccnc32)c2ccccc21 [GW441756] (first compound 1 µM, partner dose 0.4 µM)	129%
Cn1cnc2c(F)c(Nc3ccc(Br)cc3Cl)c(C(=O)NOCCO)cc21 [selumetinib] + C[As](C)SC[C@H](NC(=O)CC[C@H](N)C(=O)O)C(=O)NCC(=O)O [Darinaparsin] (first compound 0.015 µM, partner dose 0.4 µM)	65.2%
CN(C)S(=O)(=O)c1ccc2c(c1)/C(=C/c1cc3c([nH]1)CCCC3)C(=O)N2 + Cc1cc(SCc2sc(-c3ccc(C(F)(F)F)c(F)c3)nc2C)ccc1OCC(=O)O [GW0742] (first compound 0.4 µM, partner dose 2 µM)	101%
C/C(O)=C(\C#N)C(=O)Nc1cc(Br)ccc1Br + CC(C)CCN1c2nc(Nc3cc(F)c(O)c(F)c3)ncc2N(C)C(=O)C1C [BID1870] (first compound 2 µM, partner dose 0.2 µM)	100%
Cc1cc(N2CCOCC2)cc2[nH]c(-c3c(NC[C@@H](O)c4cccc(Cl)c4)cc[nH]c3=O)nc12 + C/C(O)=C(\C#N)C(=O)Nc1cc(Br)ccc1Br [LFM-A13] (first compound 0.2 µM, partner dose 2 µM)	109%
CN(C)S(=O)(=O)c1ccc2c(c1)/C(=C/c1cc3c([nH]1)CCCC3)C(=O)N2 + O=C(Oc1ccc([N+](=O)[O-])cc1)N1CCC(C(O)(c2ccc3c(c2)OCO3)c2ccc3c(c2)OCO3)CC1 [JZL184] (first compound 0.4 µM, partner dose 1 µM)	90.1%
C/C(O)=C(\C#N)C(=O)Nc1cc(Br)ccc1Br + O=c1cc(-c2cccc3c2Sc2ccccc2S3)oc(N2CCOCC2)c1 [KU55933] (first compound 2 µM, partner dose 1 µM)	98.1%
C/C(O)=C(\C#N)C(=O)Nc1cc(Br)ccc1Br + CCCCCCCCCCCC1=C(O)C(=O)C=C(O)C1=O [Embelin] (first compound 2 µM, partner dose 1.2 µM)	93.7%
C/C(O)=C(\C#N)C(=O)Nc1cc(Br)ccc1Br + O=C(Oc1ccc([N+](=O)[O-])cc1)N1CCC(C(O)(c2ccc3c(c2)OCO3)c2ccc3c(c2)OCO3)CC1 [JZL184] (first compound 2 µM, partner dose 1 µM)	88.4%
